Hit rate of the full screen: of about 150,000 compounds, about 540 (0.36%) showed an effect of 50% or more. The list shows a part of the results.

For orientation: % Inhibition means the drop in the measured response relative to a control, in per cent.

The test system of the test is Plasmodium falciparum. The test is described as follows: Primary screen in NF54 nanoGlo assay, in single point, at 2uM, 72h; a lower Z score goes with more inhibition. The test is classed as functional, Erythrocyte. The settings on record: timepoint 72 hour.
Regarding `Cc1c(CN(C)CC(=O)NCc2cccs2)cnn1C`, the “% Inhibition” value was -4% and the Z score came out at 0.83.

As for `Cc1nc(C)c(CCNC(=O)NCc2nc(C3CC3)no2)s1`, the “% Inhibition” value is on record as -7% and the Z score was found to be 0.99.

As to `CC(C)c1cc(C(=O)N(CCOc2ccccc2)C[C@H]2CCCO2)no1`, the “% Inhibition” value is given as -2% and the Z score stood at 0.49.

On to `O[C@@H](Cn1cnnc1)c1ccc(Br)cc1`, for which the “% Inhibition” value was found to be 0% and the Z score turned out to be 0.02.

As for `O=C1CCCc2nc(NC(=O)C3CC3c3c(F)cccc3F)sc21` (stereo not drawn), the “% Inhibition” value is given as -8% and the Z score came to 1.53.

With `Cc1ccc(OCCN)c(C(=O)N2C[C@@H]3[C@H]4CC[C@H](CC4)[C@@H]3C2)c1`, the “% Inhibition” value was -11% and the Z score worked out at 1.48.

As to `COCCCN1C(=O)C[C@](CC(=O)N2CCN(c3ccc(C(C)=O)cc3)CC2)(c2ccccc2)C1=O`, the “% Inhibition” value is on record as -4% and the Z score amounted to 0.44.

For `O=C1CC[C@@H](CN(Cc2cccnc2)C(=O)c2c[nH]nc2-c2ccccc2)N1`, the “% Inhibition” value is reported as -6% and the Z score was found to be 0.85.

Consider `CCCc1nnsc1C(=O)N1CC[C@H](n2ccnn2)C1`, for which the “% Inhibition” value is on record as -8% and the Z score was found to be 1.36.

On to `CCc1ocnc1C(=O)N1CCC[C@@]2(CCC(=O)N(Cc3cccnc3)C2)C1`, for which the “% Inhibition” value is on record as -9% and the Z score was 1.96.

With `COc1cccc(CN2C[C@@H]3C[C@H]2C(=O)NC[C@H]2O[C@H](CCOc4cc(-c5cnn(C)c5)ccc4C(=O)N3)CC[C@@H]2O)c1`, the “% Inhibition” value came to 3% and the Z score was -0.37.

As to `CC1CN(CCC2CCN(CCc3cccnc3)CC2)CC(C)O1` (stereo not drawn), the “% Inhibition” value is listed as -9% and the Z score stood at 1.75.

For `Cc1ccn(Cc2ncc(C(C)(C)C)o2)c(=O)c1C#N`, the “% Inhibition” value is given as -5% and the Z score came out at 0.51.

With `CCc1cnc(N(C)Cc2noc(C(C)C)n2)nc1`, the “% Inhibition” value is reported as -9% and the Z score was determined as 0.92.

Regarding `Cn1c(C(=O)N2C3CCC2CC(CC(F)(F)F)C3)c[nH]c1=O` (stereo not drawn), the “% Inhibition” value was -6% and the Z score is recorded as 1.21.

For the compound `O=S(=O)(c1cnc2ccccn12)N(Cc1cccnc1)C1CC1`, the “% Inhibition” value is 0% and the Z score is listed as -0.07.

Consider `CCCn1cc(-c2ccnc(NCCCN(C)C)n2)c(C)n1`, for which the “% Inhibition” value was -14% and the Z score is listed as 1.36.

Consider `CCN(CC)S(=O)(=O)NCc1cncc(F)c1`, for which the “% Inhibition” value stood at 7% and the Z score is -1.32.

Turning to `CCS(=O)(=O)N1CCN(C(=O)c2cc3c(C)cccn3c2)[C@H](C)C1`, the “% Inhibition” value turned out to be 0% and the Z score is 0.

Take `O=C(NCc1ccc(N2CCCC2=O)cc1)c1cn(CCc2ccccc2)nn1`: the “% Inhibition” value is on record as -10% and the Z score was determined as 0.96.

In the case of `Cc1csc([C@@H](NS(C)(=O)=O)C2CC2)n1`, the “% Inhibition” value worked out at 4% and the Z score is reported as -0.59.

With `Cc1ccc(C(=O)NCc2cc(C)on2)c(=O)[nH]1`, the “% Inhibition” value was -15% and the Z score amounted to 1.34.

For the compound `CC(=O)Nc1ccc(S(=O)(=O)Nc2cc(C(=O)N3CCC(C)CC3)ccc2N2CC3CC(C2)c2cccc(=O)n2C3)cc1` (stereo not drawn), the “% Inhibition” value is on record as -13% and the Z score is 2.19.

For `CCCNC(=O)N1CCN(c2nc(COC)nc3c2c(C)nn3-c2ccccc2)CC1`, the “% Inhibition” value is -6% and the Z score came to 0.63.

Consider `c1ccc(C[C@H](NCc2ccco2)C2CC2)nc1`, for which the “% Inhibition” value is listed as -7% and the Z score amounted to 1.23.

With `CCOC(=O)c1cnc(N(C)OC)s1`, the “% Inhibition” value stood at 7% and the Z score is recorded as -0.89.

For `O=S(=O)(c1ccc(OCC(O)CN2CCCCC2)cc1)c1ccc(OCC(O)CN2CCCCC2)cc1` (stereo not drawn), the “% Inhibition” value amounted to 26% and the Z score is given as -2.32.

Turning to `O=C(NC[C@H](O)c1ccccc1)c1ccc(-c2ccco2)[nH]c1=O`, the “% Inhibition” value worked out at 0% and the Z score is reported as -0.07.

Take `CCOC(=O)N1CCC(NC(=O)c2cc(NC(=O)CC)cc3nc(Cc4ccccc4)n(C)c23)CC1`: the “% Inhibition” value is -3% and the Z score is recorded as 0.63.

On to `Cc1ccc(F)cc1S(=O)(=O)N1CCC[C@H](C(=O)NC2CC2)C1`, for which the “% Inhibition” value is 5% and the Z score is -0.73.

For the compound `C[C@@H](C#N)NC(=O)c1ccc(Cl)c(F)c1`, the “% Inhibition” value was -2% and the Z score came out at 0.3.

In the case of `CC1CCN(C[C@]2(O)CCCN(CC(C)(C)C)C2=O)CC1`, the “% Inhibition” value is given as -7% and the Z score amounted to 1.03.

Consider `CC1CCCC2(C1)OCC(C(=O)NCC1CCCO1)N2C(=O)c1ccccc1F` (stereo not drawn), for which the “% Inhibition” value is on record as -9% and the Z score amounted to 1.16.

`O=C(C1CC1C1CCCCC1)N1CCC2(CCNCC2)C1` (stereo not drawn): the “% Inhibition” value stood at 2% and the Z score is on record as -0.31.

For the compound `COc1cccc(CN2CCc3c(c(C(=O)N4CCC(O)CC4)nn3CCCc3ccccc3)C2)c1`, the “% Inhibition” value is reported as 13% and the Z score is on record as -1.74.

As for `COCc1n[nH]c(-c2ccc(N3CCCCC3)cc2)n1`, the “% Inhibition” value is listed as -11% and the Z score was found to be 1.04.

As to `Nc1ncncc1C(=O)N(Cc1ccccc1)C1CCCCC1`, the “% Inhibition” value is -4% and the Z score is on record as 0.63.

On to `O=C([C@@H]1CCCCC(=O)N1Cc1ccccc1)N1CCc2ccccc2C1`, for which the “% Inhibition” value is -13% and the Z score is reported as 1.5.

For the compound `CCNc1n[nH]c(N)c1-c1nc(-c2ccccc2)no1`, the “% Inhibition” value was -7% and the Z score was determined as 1.

In the case of `Cc1noc(C)c1C1(O)CCCCCCCCCCC1`, the “% Inhibition” value is recorded as -2% and the Z score is recorded as 0.23.

As for `COc1ccc(S(=O)(=O)N2CCC(N3CCCCCC3)CC2)cc1`, the “% Inhibition” value worked out at 6% and the Z score is listed as -0.98.

In the case of `CN(Cc1ccccc1)c1ncccc1CNC(=O)CCC(N)=O`, the “% Inhibition” value was 5% and the Z score is recorded as -0.95.

`Cc1cc(C)nc(NC2=NCC(=O)N2CCc2c[nH]c3ccccc23)n1`: the “% Inhibition” value was 2% and the Z score was -0.3.

Turning to `CN(C(=O)Cc1ccc(O)cc1)C1(C#N)CCC1`, the “% Inhibition” value is on record as -9% and the Z score is recorded as 1.72.

Take `CN1CCC[C@H]1c1nc(C2CN(C(=O)c3ccco3)C2)no1`: the “% Inhibition” value was -11% and the Z score amounted to 1.28.

In the case of `COC[C@@H](c1ccccn1)N(C)Cc1noc(C(C)C)n1`, the “% Inhibition” value turned out to be 8% and the Z score is listed as -1.25.

As to `Cc1cc(NC(=O)CCN2CC(Cc3ccccc3)C2)no1`, the “% Inhibition” value was -6% and the Z score was 1.04.

As to `Cc1cc(=O)[nH]c(-n2nc(-c3ccco3)cc2N)n1`, the “% Inhibition” value is listed as -12% and the Z score was 1.63.

Take `FC(F)(F)c1ccc(-c2nc(-c3cnccn3)no2)cn1`: the “% Inhibition” value is -2% and the Z score is on record as 0.2.

Regarding `O=C(c1cnn2c1OCCC2)N1CC[C@H](Oc2cnccn2)C1`, the “% Inhibition” value is on record as -8% and the Z score came out at 0.9.

As for `Cc1nccc(CNC(=O)N(C)C2CCCCCCC2)n1`, the “% Inhibition” value is listed as 12% and the Z score was -1.38.

Turning to `CO[C@H]1CCCC[C@@H]1NC(=O)N(C)Cc1ccn(C)n1`, the “% Inhibition” value is -6% and the Z score was found to be 0.73.

For `C[C@H](Nc1ccc(OCC(F)(F)C(F)F)nc1)C(=O)NC(N)=O`, the “% Inhibition” value is on record as -19% and the Z score is 1.76.

Consider `CN1CC(=O)N[C@@H]2CN(C(=O)c3cccc(=O)[nH]3)CC[C@@H]2OCc2cccc(c2)Oc2cccc(c2)CCC1=O`, for which the “% Inhibition” value is -4% and the Z score was found to be 0.75.

Source of the values: ChEMBL document CHEMBL4888484, “Replenishing the malaria drug discovery pipeline: Screening and hit evaluation of the MMV Hit Generation Library 1 (HGL1) against asexual blood stage Plasmodium falciparum ,using a nano luciferase reporter read-out” (2022).
